{"source": "PubChem BioAssay AID602393", "about": "(Broad Institute, 2012)", "note": "Hit rate of the full screen: of about 350,000 compounds, about 7,000 (2%) were called active. The inconclusive results got no clear call from the source; some entries with a clear call stand among them for comparison. No stated cut-off is given here; in the data, active means activation above about 40%; inconclusive means no clear call, values can overlap the other calls; inactive means below that."}
{"assay": "raisers of Bmi1 knock-in reporter signal – mouse ES cells, Bmi1 luciferase knock-in, single point, esBAF inhibitor project, primary screen (AID 602393);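 further: 0% = median of the plate's neutral control wells and 100% = double that signal; a rise in the Bmi1 reporter signal indicates esBAF inhibition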", "conditions": "24 h, at 12.5 µM, active compounds read high, 100% = twice the neutral-well signal"}
{"smiles": "COc1ccccc1CNC(=O)C[C@H]1CC[C@@H]2[C@H](COC[C@@H](O)CN2Cc2cccc(-c3ccncc3)c2)O1", "reporter increase": "inactive: 5.73%"}
{"smiles": "Cc1cccnc1NC(=S)NCCc1ccccc1", "reporter increase": "inconclusive: 41.6%"}
{"smiles": "COc1ccccc1Oc1ccc(N/C=C2/CCCC2=O)cc1", "reporter increase": "inconclusive: 42.8%"}
{"smiles": "CCOC(=O)C1CCN(Cc2nc3ccc([N+](=O)[O-])cc3c(=O)n2-c2ccc(OC)cc2OC)CC1", "reporter increase": "active: 47.6%"}
{"smiles": "Cc1cc(Cl)c2oc(C(=O)NCCC3CCCCO3)c(C)c2c1", "note": "(stereo not given)", "reporter increase": "inconclusive: 41.9%"}
{"smiles": "CSc1ccccc1OCc1cc(C(=O)N(C)Cc2ccc(C)o2)no1", "reporter increase": "active: 75%"}
{"smiles": "Cc1ccc(-c2csc(N/N=C/c3ccco3)n2)c(C)c1", "reporter increase": "active: 68.7%"}
{"smiles": "CCOc1ccc(N=Nc2ccc(O)c3ncccc23)cc1", "reporter increase": "inactive: -10.1%"}
{"smiles": "CN(CC(=O)Nc1cccc(F)c1)C(=O)C1CCN(C(=O)c2ccc(Cl)cc2)CC1", "reporter increase": "inactive: 1.45%"}
{"smiles": "COc1ccc(C(=O)Nc2cccc3c2CCCC3)cc1", "reporter increase": "active: 47.8%"}
{"smiles": "N#CCCN1CCCc2cc(N=Nc3ccc(C(F)(F)F)cc3)ccc21", "reporter increase": "inconclusive: 44.7%"}
{"smiles": "Cc1ccccc1C(=O)N/N=C/c1cccc2ccccc12", "reporter increase": "inconclusive: 41.7%"}
{"smiles": "CN(C)C(=O)C[C@@H]1CC[C@H]2[C@@H](COc3ccc(NC(=O)c4cnccn4)cc3C(=O)N2C)O1", "reporter increase": "inactive: 1.75%"}
{"smiles": "Cc1nc2ccccn2c1C(=O)/C=C/c1ccc(F)cc1", "reporter increase": "active: 100%"}
{"smiles": "O=C(O)c1cccc(NC(=S)NC(=O)c2ccc(-c3ccc(Cl)cc3)o2)c1", "reporter increase": "inconclusive: 43.6%"}
{"smiles": "Cc1ccc(Cn2c3ccccc3c3cn[nH]c(=O)c32)cc1", "reporter increase": "inactive: 1.72%"}
{"smiles": "COc1ccc(NC(=O)N(C)C[C@@H]2Oc3c(NS(=O)(=O)c4cn(C)cn4)cccc3C(=O)N([C@@H](C)CO)C[C@H]2C)cc1", "reporter increase": "inactive: 3.96%"}
{"smiles": "O=Cc1c(-c2ccc(Cl)cc2)oc2ccc(O)cc12", "reporter increase": "inconclusive: 40.8%"}
{"smiles": "NC(=O)c1ccccc1NC(=O)COc1ccc(Cl)cc1", "reporter increase": "inconclusive: 52.2%"}
{"smiles": "COc1ccc(-c2nc(CCl)cs2)cc1OC", "reporter increase": "inactive: 0.863%"}
{"smiles": "CCNc1nc(-c2ccc(Cl)cc2)cs1", "reporter increase": "active: 89.7%"}
{"smiles": "Cc1c(Cl)c([N+](=O)[O-])nn1CCCC(=O)NCCc1ccccc1", "reporter increase": "inconclusive: 44.7%"}
{"smiles": "CC(=O)NC12CC3CC(C1)CC(C(=O)OCC(=O)c1ccc4c(c1)OCCO4)(C3)C2", "reporter increase": "inconclusive: 41.2%"}
{"smiles": "COc1cccc(NC(=O)N2C[C@@H](O)COC[C@@H]3O[C@H](CC(=O)N(C)C)CC[C@H]32)c1", "reporter increase": "inactive: -0.294%"}
{"smiles": "COc1ccc(CNC(=O)C[C@H]2C[C@@H]3c4cc(NC(=O)CC5CC5)ccc4O[C@@H]3[C@H](CO)O2)cc1", "reporter increase": "inactive: -6.93%"}
{"smiles": "CCc1ccc(NC(=O)c2cc(-c3ccco3)on2)cc1", "reporter increase": "active: 66.2%"}
{"smiles": "O=C(CC1CCCCC1)NCc1ccc(Cl)cc1", "reporter increase": "inconclusive: 49.1%"}
{"smiles": "CCOc1ccc(-c2nc(C#N)c(NC3CC3)o2)cc1", "reporter increase": "inconclusive: 41.1%"}
{"smiles": "CC(C)NC(=O)N(C)C[C@H]1Oc2c(NS(=O)(=O)c3ccccc3)cccc2C(=O)N([C@@H](C)CO)C[C@H]1C", "reporter increase": "inactive: -5.12%"}
{"smiles": "O=C(NCC[C@H]1CC[C@H](NC(=O)C2CCCCC2)[C@@H](CO)O1)Nc1ccc(Cl)cc1", "reporter increase": "inactive: 10.7%"}
{"smiles": "C[C@@H]1CN([C@@H](C)CO)C(=O)c2cc(NS(=O)(=O)c3ccccc3)ccc2O[C@H]1CN(C)C(=O)NC1CCCCC1", "reporter increase": "inactive: 0.978%"}
{"smiles": "CCCN1CCN(C(=O)c2cc(COc3ccc(F)c(F)c3)on2)CC1", "reporter increase": "inconclusive: 41.6%"}
{"smiles": "C[C@H]1CN([C@@H](C)CO)C(=O)Cc2cc(NS(=O)(=O)c3cn(C)cn3)ccc2O[C@H]1CN(C)Cc1ccc(-c2ccccc2)cc1", "reporter increase": "inactive: -2.99%"}
{"smiles": "CCOC(=O)c1ccc(NCc2nc3ccccc3[nH]2)cc1", "reporter increase": "active: 50.4%"}
{"smiles": "CC(=O)c1ccc(Nc2ncnc3c2oc2ccccc23)cc1", "reporter increase": "active: 64.7%"}
{"smiles": "CCCCC(c1nc2ccccc2[nH]1)n1c(-c2ccccc2)nc2cc(C)c(C)cc21", "note": "(stereo not given)", "reporter increase": "inconclusive: 40.1%"}
{"smiles": "COc1cc(OC)cc(-c2c(-c3ccc(F)cc3)c3cc(-c4ccc(OC)nc4)ccc3n2C)c1", "reporter increase": "inactive: -5.16%"}
{"smiles": "COc1ccc(C(=O)Cc2cc3cccc(OC)c3oc2=O)cc1", "reporter increase": "inconclusive: 46.2%"}
{"smiles": "Cc1ccc(C(=O)CC(=O)c2ccccc2)cc1", "reporter increase": "inconclusive: 43%"}
{"smiles": "Cc1ccc(NC(=O)CNCc2ccccc2Cl)cc1S(=O)(=O)N(C)C", "reporter increase": "inconclusive: 41.8%"}
{"smiles": "O=C(O)c1cccc(-c2csc(C(O)c3ccc(F)cc3)n2)c1", "note": "(stereo not given)", "reporter increase": "inconclusive: 42.4%"}
{"smiles": "O=C1c2ccccc2C(=O)N1CC(O)COc1ccccc1Cl", "note": "(stereo not given)", "reporter increase": "inconclusive: 41.3%"}
{"smiles": "CO[C@@H]1CN(C)C(=O)c2cc(NS(=O)(=O)c3cccc(F)c3)ccc2OC[C@@H](C)N(Cc2cc(F)ccc2F)C[C@H]1C", "reporter increase": "inactive: 12.3%"}
{"smiles": "Cc1cc2[nH]c(=S)[nH]c2cc1C", "reporter increase": "inactive: -6.16%"}
{"smiles": "O=C(N/N=C/c1ccccc1F)c1cccc2ccccc12", "reporter increase": "inconclusive: 36.9%"}
{"smiles": "N#Cc1ccc(NC(=O)c2cccs2)nc1", "reporter increase": "inconclusive: 37.1%"}
{"smiles": "Fc1ccccc1-c1nc(-c2ccncc2)no1", "reporter increase": "inconclusive: 42.8%"}
{"smiles": "COc1ccccc1S(=O)(=O)N[C@@H]1C=C[C@@H](CC(=O)N2CCCCC2)O[C@H]1CO", "reporter increase": "inactive: -2.22%"}
{"smiles": "O=C(c1ccc2oc(CCc3ccccc3)nc2c1)N1CC[C@H](O)C1", "reporter increase": "inconclusive: 42.6%"}
{"smiles": "O=C(O)c1ccc(/C=N/Nc2cccc(C(F)(F)F)c2)cc1", "reporter increase": "active: 87.7%"}
{"smiles": "Cc1ccccc1NC(=S)N/N=C/c1ccc(O)cc1O", "reporter increase": "inconclusive: 35.9%"}
{"smiles": "COc1ccc(-c2nc(C#N)c(NCC3CCCO3)o2)cc1", "note": "(stereo not given)", "reporter increase": "inconclusive: 40.6%"}
{"smiles": "Cc1ccc(NC(=O)CN(C)C(=O)CNC(=O)c2sc3ccccc3c2Cl)cc1", "reporter increase": "inconclusive: 45.3%"}
{"smiles": "c1ccc(CCCc2nc(-c3cccnc3)no2)cc1", "reporter increase": "inconclusive: 41%"}
{"smiles": "Cc1ccc(NC(=O)c2ccc(OC(=O)CCN3C(=O)c4ccccc4C3=O)cc2)cc1", "reporter increase": "inconclusive: 41.2%"}
